The other results are listed elsewhere or left out.
Experiments:
Assay in all cases: glycan array binding signal (z-score within array); higher = stronger binding
Conditions in all cases: glycan notation: IUPAC condensed, linker removed
[1] = target: Gal(b1-4)GlcNAc(b1-2)Man(a1-3)[Gal(b1-4)GlcNAc(b1-2)Man(a1-6)]Man(b1-4)GlcNAc(b1-4)[Fuc(a1-6)]GlcNAc
Outline: (§1)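 Glycan array data came from 3228 arrays in the Consortium for Functional Glycomics database, and only arrays with an available protein sequence were kept. Glycan names were put into IUPAC-condensed notation, and columns mapping to the same glycan were averaged. The binding signal is a within-array Z-score, averaged across arrays of one protein sequence run at different concentrations or buffers and across linkers. A negative Z-score can be read as non-binding.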

[2] = target: Gal(b1-4)GlcNAc(b1-2)Man(a1-3)[Gal(b1-4)GlcNAc(b1-2)Man(a1-6)][Gal(b1-4)GlcNAc(b1-4)]Man(b1-4)GlcNAc(b1-4)[Fuc(a1-6)]GlcNAc
Outline: as §1

[3] = target: Gal(b1-4)GlcNAc(b1-2)Man(a1-3)[Gal(b1-4)GlcNAc(b1-2)Man(a1-6)][GlcNAc(b1-4)]Man(b1-4)GlcNAc(b1-4)[Fuc(a1-6)]GlcNAc
Outline: as §1

[4] = target: Gal(b1-4)GlcNAc(b1-2)Man(a1-3)[GlcNAc(b1-2)Man(a1-6)]Man(b1-4)GlcNAc(b1-4)GlcNAc
Outline: as §1

[5] = target: Gal(b1-4)GlcNAc(b1-2)Man(a1-3)[GlcNAc(b1-4)][Gal(b1-4)GlcNAc(b1-2)Man(a1-6)]Man(b1-4)GlcNAc(b1-4)GlcNAc
Outline: as §1

[6] = target: Gal(b1-4)GlcNAc(b1-2)Man(a1-3)[Man(a1-6)]Man(b1-4)GlcNAc(b1-4)GlcNAc
Outline: as §1

[7] = target: Gal(b1-4)GlcNAc(b1-2)Man(a1-6)Man(b1-4)GlcNAc(b1-4)GlcNAc
Outline: as §1

[8] = target: Gal(b1-4)GlcNAc(b1-2)Man(a1-6)[GlcNAc(b1-2)Man(a1-3)]Man(b1-4)GlcNAc(b1-4)GlcNAc
Outline: as §1

[9] = target: Gal(b1-4)GlcNAc(b1-2)Man(a1-6)[Man(a1-3)]Man(b1-4)GlcNAc(b1-4)GlcNAc
Outline: as §1

[10] = target: Gal(b1-4)GlcNAc(b1-2)[Gal(b1-4)GlcNAc(b1-4)]Man(a1-3)[Gal(b1-4)GlcNAc(b1-2)Man(a1-6)]Man(b1-4)GlcNAc(b1-4)GlcNAc
Outline: as §1

[11] = target: Gal(b1-4)GlcNAc(b1-2)[Gal(b1-4)GlcNAc(b1-4)]Man(a1-3)[Gal(b1-4)GlcNAc(b1-2)[Gal(b1-4)GlcNAc(b1-6)]Man(a1-6)]Man(b1-4)GlcNAc(b1-4)GlcNAc
Outline: as §1

[12] = target: Gal(b1-4)GlcNAc(b1-2)[Gal(b1-4)GlcNAc(b1-4)]Man(a1-3)[GlcNAc(b1-4)][Gal(b1-4)GlcNAc(b1-2)Man(a1-6)]Man(b1-4)GlcNAc(b1-4)GlcNAc
Outline: as §1

[13] = target: Gal(b1-4)GlcNAc(b1-2)[Gal(b1-4)GlcNAc(b1-4)]Man(a1-3)[GlcNAc(b1-4)][Gal(b1-4)GlcNAc(b1-2)[Gal(b1-4)GlcNAc(b1-6)]Man(a1-6)]Man(b1-4)GlcNAc(b1-4)GlcNAc
Outline: as §1

[14] = target: Gal(b1-4)GlcNAc(b1-2)[Gal(b1-4)GlcNAc(b1-6)]Man(a1-6)[Gal(b1-4)GlcNAc(b1-2)Man(a1-3)]Man(b1-4)GlcNAc(b1-4)GlcNAc
Outline: as §1

[15] = target: Gal(b1-4)GlcNAc(b1-2)[Gal(b1-4)GlcNAc(b1-6)]Man(a1-6)[Gal(b1-4)GlcNAc(b1-2)Man(a1-3)]Man(b1-4)GlcNAc(b1-4)[Fuc(a1-6)]GlcNAc
Outline: as §1

[16] = target: Gal(b1-4)GlcNAc(b1-2)[Gal(b1-4)GlcNAc(b1-6)]Man(a1-6)[GlcNAc(b1-4)][Gal(b1-4)GlcNAc(b1-2)Man(a1-3)]Man(b1-4)GlcNAc(b1-4)GlcNAc
Outline: as §1

[17] = target: Gal(b1-4)GlcNAc(b1-2)[Gal(b1-4)GlcNAc(b1-6)]Man(a1-6)[GlcNAc(b1-4)][Gal(b1-4)GlcNAc(b1-2)[Gal(b1-4)GlcNAc(b1-4)]Man(a1-3)]Man(b1-4)GlcNAc(b1-4)[Fuc(a1-6)]GlcNAc
Outline: as §1

[18] = target: Gal(b1-4)GlcNAc(b1-3)Gal(b1-3)GalNAc
Outline: as §1

[19] = target: Gal(b1-4)GlcNAc(b1-3)Gal(b1-3)GlcNAc
Outline: as §1

B1: B160 (Bifidobacterium sp) (protein)
chain: MVSHNKRIVAALAAVAAMGIGLAGCGGSDTAGDTKSGSDGGVVNITYMHRLPDSEGMTLVNDIVAKWNKEHPNIQVKATKFDGNAADMIKKLETDVKAGNAPDLAQVGYAEVPEVFTKGLLQDVTDEAAKYKDDFASGPFALMQVDGKTYGLPQDTGPLTYFYNAAEFEKLGITVPKTADELIETAKKTAAQGKYIMTFTPDEAMMMMSGQAGASGPWYKVDGNSWVVNTQTKGSKAVADVYQQLIDNKAALTNPRWDASFDNSIQSGQLIGTVAAAWEAPLFIDSAGGTGAGEWKVTQLGDWFGNGTKTGANGGSGVAVLKGSKHPAEAMEFLDWFNTQVDDLVSQGLVVAATTADAKTPQKWSDYFSGQDVMAEFKTANDNMGDFTYMPGFSAVGAAMKQTAAKAADGSAKVSDVFDTAQKTSVDTLKNLGLSVKE
- glycan array binding signal (z-score) [1]: -0.107
- glycan array binding signal (z-score) [2]: -0.187
- glycan array binding signal (z-score) [3]: -0.191
- glycan array binding signal (z-score) [4]: -0.172
- glycan array binding signal (z-score) [5]: -0.168
- glycan array binding signal (z-score) [6]: -0.176
- glycan array binding signal (z-score) [7]: -0.158
- glycan array binding signal (z-score) [8]: -0.145
- glycan array binding signal (z-score) [9]: -0.18
- glycan array binding signal (z-score) [10]: -0.157
- glycan array binding signal (z-score) [11]: -0.18
- glycan array binding signal (z-score) [12]: -0.153
- glycan array binding signal (z-score) [13]: -0.145
- glycan array binding signal (z-score) [14]: -0.124
- glycan array binding signal (z-score) [15]: -0.134
- glycan array binding signal (z-score) [16]: -0.182
- glycan array binding signal (z-score) [17]: -0.158
- glycan array binding signal (z-score) [18]: -0.177
- glycan array binding signal (z-score) [19]: -0.163

Source: the supplement of paper PMC8728848
